The values that follow come from the supplement of paper PMC10338343.

± gives the standard deviation. Whole data set: some 6,600 sequences, median “pre-steady-state target cleavage rate” near 0.07, cut for the highest 2% near 0.72. The list shows a part of the results, in another mix than the full data.
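Note: 1 nM active piRISC with 0.1 nM target library at 33 °C single turnover.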

The test system of the assay is MIWI (PIWIL1) piRISC loaded with Kctd7 piRNA (30 nt). Put plainly: pre-steady-state target cleavage rate (min^-1); MIWI and MILI are mouse PIWI proteins and EfPiwi is from a freshwater sponge; tags in brackets are library labels; higher = faster piRNA-guided slicing of the target. The following applies: guide: Kctd7 piRNA 5'p-UGUUAAUCUCUCAGAGAAGGUGACAGUGAU; auxiliary factor: 500 nM mouse GTSF1. The method, boiled down:
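In this Cleave-'n-Seq assay, uncleaved targets were sequenced and normalised to depth and to weakly complementary targets. They came from a transcribed, DNA-blocked target RNA library […] mixed with 1 nM active affinity-purified piRISC carrying one synthetic guide, with or without 500 nM GTSF1 partner protein, in HEPES–potassium acetate buffer at 33 °C for 0–8 or 0–960 min. After three trials were pooled and k3 was capped at 0.0001 min^-1, the pre-steady-state cleavage rate was obtained from a burst-and-steady-state fit.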
As for UAGACAGUCACCUUCUCUGAGACAUUAACA, the “pre-steady-state target cleavage rate” value is 0.268 ± 0.02. The same measure for UAGUGACAGACCUUGCUCUGAGAGAUUAACA: 0.015 ± 0.0052; for UAGUGACACACGAUCUCUGAGAGAUUAACA: 0.0126 ± 0.0024.

With UUCACUGUCACCUUCUCUGAGACAUUAAGA, the “pre-steady-state target cleavage rate” value came out at 0.00752 ± 0.0027. The same measure for UUCACUGUCACCUUCUCUGAGAGUUUAACA: 0.523 ± 0.073. Turning to UAGACUGUCACCUUCUCUGAGAGAUUUUCA, the “pre-steady-state target cleavage rate” value came out at 0.106 ± 0.018. The same measure for UAGUGACACUCCUUCUGUGAGAGAUUAACA: 0.135 ± 0.013; for UAGUGAGUCACCUUCUCUGAGAUGAUUAACA: 0.013 ± 0.007. The same measure for UAGUGUGUGACCUUCUCUGAGAGAUUAAGA: 0.171 ± 0.032; for UAGUGACUCACCUUCUCUGAGAGUUUAUGA: 0.0387 ± 0.013. The result for UAGACUGUCAGCUUCUCUGAGACAUUAACA reads 0.00378 ± 0.0026. UAGUGACAGUGCUUCUCUGAGAAAUUAACA: the “pre-steady-state target cleavage rate” value came to 0.00571 ± 0.0034.

With AUCACUGUCACCAUCUCUGAGAGAUUAACA, the “pre-steady-state target cleavage rate” value came out at 0.795 ± 0.048. The result for UAGUGACUCAGCUUCUCUGAGAGAUUAAGA reads 0.0328 ± 0.007.

Regarding UACACUGUCACCUAUCUCUGAGAGAUUAACA, the “pre-steady-state target cleavage rate” value worked out at 0.519 ± 0.042. The result for UUCACUGUCACCUACUCUGACAGAUUAACA reads 0.227 ± 0.021. The same measure for UAGUGACACAGGAUCUCUGAGAGAUUAACA: 0.00384 ± 0.0015.

For the sequence UAGUGUGUGACCUUCUGUGAGAGAUUAACA, the “pre-steady-state target cleavage rate” value came to 0.35 ± 0.036. The same measure for UAGACUGUCACCAUCUCUGAGACAUUAACA: 0.0149 ± 0.0034. The result for UAGUGACACUCCUUCUCUGAGAGAUUAUGA reads 0.0116 ± 0.0035; that for UUCACUGUCAGCUUCUCUGAGUGAUUAACA, 0.023 ± 0.0043; that for AUCACUGUCACCUUGUCUGUGAGAUUAACA, 0.175 ± 0.013. Consider AUCACAGUCACCUUCUCUGAGAGAUAUUGA, for which the “pre-steady-state target cleavage rate” value was determined as 0.076 ± 0.029. The same measure for UAGUGACAGUCCUUGUCUGAGAGUUUAACA: 0.00411 ± 0.0029; for UUCACUGAGACCUUCUCUGAGAGAUUUUGA: 0.0226 ± 0.0069. The same measure for UAGUGAGUCACCUUCUCUGAGAGUUAAACA: 0.304 ± 0.047.

In the case of UAGUGACUCACCAUCUCUCAGAGAUUAACA, the “pre-steady-state target cleavage rate” value was 0.00669 ± 0.003. The same measure for UAGACUGUCACCUUCUCUGAGAGAUUAAACA: 0.48 ± 0.043; for UACACUGUCACCUAGUCUGAGAGAUUAAGA: 0.0776 ± 0.018; for UACACUGUCAGCUUCUCUGAGACAUUAACA: 0.0142 ± 0.0034. Consider AUCACUCACACCUUCUCUGAGAGAUAUUGA, for which the “pre-steady-state target cleavage rate” value worked out at 0.0544 ± 0.021. For UUCACUGUCACCUUCUCUGAGUGAAUAACA, the “pre-steady-state target cleavage rate” value was determined as 0.0221 ± 0.0057.

In the case of AUCACUGACACCUUCUCUGAGAGAUUUUGA, the “pre-steady-state target cleavage rate” value is 0.15 ± 0.029. The same measure for UAGACUGUCACCAUUCUCUGAGAGAUUAACA: 0.792 ± 0.055; for UAGUGUGUCACCUUCUGUGAGAGAUUUACA: 0.136 ± 0.017. The result for UAGUGAGUCACCUUCUCUGUGAGAUUAUCA reads 0.0619 ± 0.013. The result for UAGUCUGUGACCUACUCUGAGAGAUUAACA reads 0.496 ± 0.03; that for UAGUGACAGUCCUUCUCUGAGAGAGUAACA, 0.023 ± 0.0053. In the case of UACACAGUCACCUUCUCUCAGAGAUUAACA, the “pre-steady-state target cleavage rate” value turned out to be 0.115 ± 0.014. The result for UAGUGACACACCUACUCUGAGAGAUAAACA reads 0.073 ± 0.0083; that for UACACUGUCACCUUCACUGAGUGAUUAACA, 0.0291 ± 0.0062; that for “UAGUGUGUCACCUUCUCUGAGAGUAAUUGA [g8:g25:cont:t1A]”, 0.0793 ± 0.023. For AUCACUGUCACCUUCUCUCUCAGAUUAAGA, the “pre-steady-state target cleavage rate” value was 0.00483 ± 0.0037.

For AUGACUGUGACCUUCUCUGAGAGAUUAACA, the “pre-steady-state target cleavage rate” value is 0.641 ± 0.045. The same measure for UUCACUGUCACCUAGUCUGAGAGAUAUUGA: 0.0365 ± 0.013; for UUCACUGUCACCUUCUCUGAGAGUUUUUGA: 0.213 ± 0.048; for UAGUGUGUCACCUUCUCUCAGAGAAUAACA: 0.0238 ± 0.0076. The same measure for UAGUGACACACCUUGUCUCAGAGAUUAACA: 0.00775 ± 0.0029; for UUCACUGUCACCUUCACUGAGACAUUAACA: 0.172 ± 0.018. With UAGAGUGUCACCUUCUCUGAGAGAAUAACA, the “pre-steady-state target cleavage rate” value stood at 0.366 ± 0.058.

Turning to UAGUGACACACCUUCUCAGAGAGAUUAACA, the “pre-steady-state target cleavage rate” value turned out to be 0.175 ± 0.03. The same measure for UACACUGUCACCUUCUCUGAAAGAUUAACA: 0.456 ± 0.029. The result for UUCACUGUCACCUUCUCUGAGAGAUUAAUCA reads 0.351 ± 0.038; that for UAGACUGUCACCUUCUCUGAGAGAUUAAAA, 0.177 ± 0.024; that for UAGUGACACACCUUCUCAGAGAGAUUAUCA, 0.0516 ± 0.012. Turning to UAGUCUCAGACCUUCUCUGAGAGAUUAAGA, the “pre-steady-state target cleavage rate” value came to 0.0281 ± 0.0056.

UAGUCAGUCACCUUCACUGAGAGAUUAACA: the “pre-steady-state target cleavage rate” value was found to be 0.401 ± 0.025.

Consider UAGUGACUCACCUUCUGUGAGAGAUUAUCA, for which the “pre-steady-state target cleavage rate” value turned out to be 0.0148 ± 0.0029. The same measure for UAGUGUGUCACCUUCUCAGAGAGAUUAAGA: 0.101 ± 0.016. The same measure for UAGUGAGUCACAUUCUCUGAGAGAUUAACA: 0.69 ± 0.041; for AUCACUGUCACCUUCUCUGCGAGAUUAACA: 0.488 ± 0.045. The result for UAGUGACUCACCUUCUCUGAAAGAUUAACA reads 0.524 ± 0.025; that for UAGUCUGUCACCUUCUCUGAGAGUUUUUGA, 0.107 ± 0.026. UUCACUGUCACGUUCUCUGAGAGUUUAACA: the “pre-steady-state target cleavage rate” value amounted to 0.161 ± 0.021. The result for UAGACUGUCAGCAUCUCUGAGAGAUUAACA reads 0.474 ± 0.04; that for UAGUCUGUCACGUUCUCUGACAGAUUAACA, 0.0122 ± 0.0037; that for UAGUGAGUCACCUACUCUGAGAGAUUUUGA, 0.00815 ± 0.0053. For the sequence UUCACUGUCCACCUUCUCUGAGAGAUUAACA, the “pre-steady-state target cleavage rate” value was 0.551 ± 0.045.

On to UAGUGACACACCUUCUGUGAGAGAUUAACA, for which the “pre-steady-state target cleavage rate” value came out at 0.389 ± 0.032.

As to UUCACUGUCACCUUCUCUGAGAGGAUUAACA, the “pre-steady-state target cleavage rate” value is 0.326 ± 0.031.

Consider UUCACUGUCACCUUCCUGAGAGAUUAACA, for which the “pre-steady-state target cleavage rate” value was 0.112 ± 0.023. In the case of AUCACUGUCACCUAUCUCUGAGAGAUUAACA, the “pre-steady-state target cleavage rate” value was 0.651 ± 0.041.
